Reference: PubChem BioAssay (Tox21)
Inconclusive results, whose numbers are uncertain, are shown with a selection of clear calls. For some assays here: Potencies of inconclusive entries are doubtful fits and often do not repeat. Activity calls are given as the source filed them. Unless noted, the call rests on the fitted dose curve; in most records, active means well fitted curve in the direction sought with a large enough effect in the repeat runs; inconclusive means weak or mixed curves; inactive means no such curve, though single readings can be large; an effect the other way counts as inactive or inconclusive.

What was measured:
[1] = qHTS assay to identify small molecule antagonists of the estrogen receptor alpha (ER-alpha) signaling pathway using the BG1 cell line (AID 743080; calls by dose curve;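 further: BG1 cells stimulated with 17beta-estradiol alongside compound; on the % scale 0 is the no-effect control and ±100 the full control effect; nearly all actives have a fitted effect of over 25% in size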); conditions: BG1Luc4E2 ERE-luciferase antagonist mode, luminescence; activity change, negative = inhibition: at 70.3 µM (top of the series) unless noted
Summary of the method: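 BG1-Luc-4E2 cells (endogenous full-length ER-alpha, 4xERE luciferase) hormone-starved 5 days in charcoal-stripped FBS, plated 4,000/well for 24 h, then compound plus 17beta-estradiol for 21.5 h at 37 C; ONE-Glo luminescence read.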

[2] = molecular target: Voltage-gated inwardly rectifying potassium channel KCNH2 (Homo sapiens) (UniProt Q12809); assay: Human Ether-a-go-go-Related Gene (hERG) channel small molecule antagonists: fluorescence cell-based qHTS assay (AID 1671200); conditions: hERG-U2OS cells, FluxOR thallium flux fluorescence; series mostly up to 76.8 µM; further: nearly all actives have a fitted effect of over 50% in size; further: potency means the concentration at half of the fitted maximal effect
Chain of UniProt Q12809 (Q12809 whole entry, looked up): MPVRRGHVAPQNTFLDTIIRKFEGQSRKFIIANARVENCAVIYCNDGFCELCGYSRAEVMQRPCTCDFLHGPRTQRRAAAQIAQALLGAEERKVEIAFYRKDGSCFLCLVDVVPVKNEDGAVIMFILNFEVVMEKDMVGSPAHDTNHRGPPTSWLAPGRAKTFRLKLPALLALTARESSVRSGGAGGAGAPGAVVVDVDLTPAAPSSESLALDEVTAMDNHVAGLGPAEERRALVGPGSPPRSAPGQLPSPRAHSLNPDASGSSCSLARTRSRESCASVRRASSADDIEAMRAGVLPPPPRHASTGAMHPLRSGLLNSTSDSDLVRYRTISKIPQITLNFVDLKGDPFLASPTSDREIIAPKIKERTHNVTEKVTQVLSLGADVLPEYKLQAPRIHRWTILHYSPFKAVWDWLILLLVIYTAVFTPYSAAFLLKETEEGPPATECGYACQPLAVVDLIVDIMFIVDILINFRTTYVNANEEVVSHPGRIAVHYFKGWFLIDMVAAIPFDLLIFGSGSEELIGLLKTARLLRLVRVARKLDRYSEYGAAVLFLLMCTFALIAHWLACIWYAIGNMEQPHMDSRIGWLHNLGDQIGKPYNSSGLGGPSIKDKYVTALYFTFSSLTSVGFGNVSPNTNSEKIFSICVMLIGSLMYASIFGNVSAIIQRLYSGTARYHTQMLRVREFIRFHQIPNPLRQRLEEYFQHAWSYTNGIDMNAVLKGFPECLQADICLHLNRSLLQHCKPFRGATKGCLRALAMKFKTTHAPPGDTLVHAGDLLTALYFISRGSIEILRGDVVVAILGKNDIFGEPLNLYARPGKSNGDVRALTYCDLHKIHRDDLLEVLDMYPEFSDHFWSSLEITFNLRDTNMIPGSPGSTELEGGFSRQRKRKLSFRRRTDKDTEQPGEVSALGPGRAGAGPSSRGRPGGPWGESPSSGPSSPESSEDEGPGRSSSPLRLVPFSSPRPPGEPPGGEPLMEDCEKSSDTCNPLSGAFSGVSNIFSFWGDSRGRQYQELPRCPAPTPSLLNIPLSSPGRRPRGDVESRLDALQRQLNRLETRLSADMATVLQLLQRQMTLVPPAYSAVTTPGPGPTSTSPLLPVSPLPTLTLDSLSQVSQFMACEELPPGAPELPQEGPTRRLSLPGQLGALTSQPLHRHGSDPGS
Summary of the method: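 U2OS cells expressing the channel were plated at 1000 cells/well, incubated overnight at 37 C, then loaded with FluxOR II thallium-sensitive dye for 1 h at room temperature in the dark, with a further 10 min at room temperature before stimulation.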

[3] = molecular target: Cytochrome P450 3A4 (Homo sapiens) (UniProt P08684); assay: Cytochrome P450 Family 3 Subfamily A Member 4 (CYP3A4) small molecule antagonists: luciferase reporter qHTS assay (AID 1671201); conditions: P450-Glo CYP3A4 enzyme, luciferin luminescence, 1 h; series mostly up to 115 µM; further: nearly all actives have a fitted effect of over 50% in size; further: potency means the concentration at half of the fitted maximal effect; on activity change, negative = inhibition: on the % scale 0 is the no-effect control and ±100 the full control effect
Chain of UniProt P08684 (P08684 whole entry, looked up): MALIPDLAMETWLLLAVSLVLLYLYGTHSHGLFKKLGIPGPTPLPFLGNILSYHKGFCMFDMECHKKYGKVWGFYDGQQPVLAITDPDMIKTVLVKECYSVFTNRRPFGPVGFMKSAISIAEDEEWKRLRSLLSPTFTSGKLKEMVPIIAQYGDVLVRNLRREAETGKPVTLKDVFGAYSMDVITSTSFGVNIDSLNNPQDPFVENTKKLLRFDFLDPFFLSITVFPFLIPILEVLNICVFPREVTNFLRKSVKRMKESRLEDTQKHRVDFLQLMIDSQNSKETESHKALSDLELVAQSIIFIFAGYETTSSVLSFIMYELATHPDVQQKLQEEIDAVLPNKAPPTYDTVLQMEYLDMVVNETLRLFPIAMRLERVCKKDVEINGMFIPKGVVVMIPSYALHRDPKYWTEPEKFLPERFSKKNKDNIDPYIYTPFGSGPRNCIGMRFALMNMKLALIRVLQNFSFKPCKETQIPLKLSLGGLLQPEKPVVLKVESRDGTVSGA
Summary of the method: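 P450-Glo CYP3A4 system with proluciferin substrate; compounds preincubated 10 min RT with enzyme-substrate mix, then NADPH regeneration added for 1 h RT. Detection reagent 20 min, luminescence read as relative luminescence units.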

[4] = qHTS RealTime-Glo MT Cell Viability Assay in HEK293 cells - 24 hour (AID 1224886); conditions: RealTime-Glo luminescence; series mostly up to 76.8 µM; further: nearly all actives have a fitted effect of over 50% in size; further: potency means the concentration at half of the fitted maximal effect; on activity change, negative = cytotoxicity: top concentration of the series differs between compounds; on the % scale 0 is the no-effect control and ±100 the full control effect
Summary of the method: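 HEK293 cells seeded with NanoLuc/prosubstrate reagent, rested 5 h at 37 C, then dosed and kept at 37 C up to 40 h. Nonlytic real-time luminescence from viable cells read at 0, 8, 16, 24, 32 and 40 h.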

[5] = A CellTox Green Cytotoxicity Assay to monitor cytotoxicity in HEK293 cells - 8 hour (AID 1224884); conditions: CellTox Green fluorescence; series mostly up to 76.8 µM; further: on the % scale 0 is the no-effect control and ±100 the full control effect; nearly all actives have a fitted effect of over 35% in size
Summary of the method: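 Fluorescence from a DNA-binding dye excluded by viable cells was measured repeatedly in the same HEK293 wells (600 cells/well) during continuous compound exposure at 37 C. Each assay gives one read point: 0, 8, 16, 24, 32 or 40 h.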

[6] = A CellTox Green Cytotoxicity Assay to monitor cytotoxicity in HepG2 cells - 24 hour (AID 1224878); conditions: CellTox Green fluorescence; series mostly up to 76.8 µM; further: nearly all actives have a fitted effect of over 45% in size; further: potency means the concentration at half of the fitted maximal effect
Summary of the method: (§1)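 Real-time cytotoxicity: fluorescence of a cell-impermeant cyanine dye binding DNA of dead HepG2 cells, measured repeatedly (0–40 h) during compound exposure at 37 C. Cells seeded 600/well with reagent, dosed after 5 h.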

[7] = Caspase-3/7 induction in CHO-K1 cells by small molecules, qHTS cell viability counter screen (AID 1346979); conditions: CellTiter-Fluor fluorescence, 17 h; series mostly up to 92.4 µM; further: potency means the concentration at half of the fitted maximal effect; nearly all actives have a fitted effect of over 35% in size
Summary of the method: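 Wild-type CHO-K1 cells were seeded at 1,500 per well, rested 5hr at 37 C, then exposed to compounds in DMSO. After 16hr, CellTiter-Fluor reagent was added and fluorescence read 1hr later as the viability measure.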

[8] = qHTS assay to identify small molecule antagonists of the androgen receptor (AR) signaling pathway using the MDA cell line - cell viability counter screen (AID 743041; further: nearly all actives have a fitted effect of over 45% in size; further: potency means the concentration at half of the fitted maximal effect); conditions: MDA-kb2 viability, CellTiter-Fluor, 16 h, cells co-treated with R1881 androgen agonist; viability change, negative = cytotoxic: at 70.3 µM (top of the series)
Summary of the method: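 Cytotoxicity counter screen: MDA-kb2 AR-luc cells, compound + R1881, 16 h, 37C, 0% CO2; CellTiter-Fluor added at 15.5 h, fluorescence read after 30 min.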

[9] = qHTS assay to identify small molecule antagonists of the sonic hedgehog signaling (Shh) pathway - cell viability counter screen (AID 1259367); conditions: NIH/3T3 Gli1-Luc viability, CellTiter-Fluor, 24 h; series mostly up to 92.4 µM; further: nearly all actives have a fitted effect of over 55% in size; further: potency means the concentration at half of the fitted maximal effect
Summary of the method: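 Fluorescence read-out (CellTiter-Fluor, 1 hr at 37C) taken after 23 hr compound treatment of 3T3 Gli1-Luc cells stimulated with conditioned medium. Cells were seeded at 2,000 per well and pre-incubated 4 hr.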

[10] = qHTS assay to identify small molecule antagonists of the androgen receptor (AR) signaling pathway - cell viability counter screen (AID 743033; further: on the % scale 0 is the no-effect control and ±100 the full control effect; nearly all actives have a fitted effect of over 45% in size); conditions: AR-bla HEK293 viability, CellTiter-Glo luminescence, 16 h; activity change, negative = cytotoxicity: at 58.5 µM (top of the series) unless noted
[11] = A CellTox Green Cytotoxicity Assay to monitor cytotoxicity in HepG2 cells - 40 hour (AID 1224879); conditions: CellTox Green fluorescence; series mostly up to 76.8 µM; further: nearly all actives have a fitted effect of over 40% in size; further: potency means the concentration at half of the fitted maximal effect
Summary of the method: as §1

[12] = qHTS RealTime-Glo MT Cell Viability Assay in HEK293 cells - 8 hour (AID 1224887); conditions: RealTime-Glo luminescence; series mostly up to 76.8 µM; further: nearly all actives have a fitted effect of over 50% in size; further: potency means the concentration at half of the fitted maximal effect
Summary of the method: (§2)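 Luminescence, which tracks viable cell number through reduction of the prosubstrate to a NanoLuc substrate, was read over continuous 37 C culture. Cells (600/well) were premixed with reagent and rested 5 h before 23 nL of compound in DMSO was pinned.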

[13] = molecular target: Vitamin D3 receptor (Homo sapiens) (UniProt P11473); assay: qHTS assay to identify small molecule agonists of the vitamin D receptor (VDR) signaling pathway (AID 743222; calls by dose curve; further: potency means the concentration at half of the fitted maximal effect); conditions: HEK293T VDR-UAS-bla, beta-lactamase FRET ratio, 16 h; activation: at 63.5 µM (top of the series) unless noted
Chain of UniProt P11473 (P11473 whole entry, looked up): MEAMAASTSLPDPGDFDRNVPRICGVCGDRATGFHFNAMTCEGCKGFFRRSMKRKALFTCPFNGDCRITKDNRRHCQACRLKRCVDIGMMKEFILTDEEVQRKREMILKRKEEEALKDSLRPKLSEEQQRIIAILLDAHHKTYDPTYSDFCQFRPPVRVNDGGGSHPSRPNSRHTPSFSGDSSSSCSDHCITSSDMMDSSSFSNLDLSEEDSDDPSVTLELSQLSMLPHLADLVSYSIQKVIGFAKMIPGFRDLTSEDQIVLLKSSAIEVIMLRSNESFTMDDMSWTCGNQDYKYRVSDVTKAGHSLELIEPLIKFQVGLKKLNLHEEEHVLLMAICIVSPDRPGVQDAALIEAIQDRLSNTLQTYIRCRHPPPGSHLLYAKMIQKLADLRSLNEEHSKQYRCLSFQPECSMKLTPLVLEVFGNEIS
Summary of the method: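 Agonist mode, beta-lactamase reporter: fluorescence from LiveBLAzer B/G FRET substrate (2 h, room temperature) read after 16 h compound treatment at 37 C of VDR-bla cells, which were pre-incubated 4 h after seeding.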

[14] = qHTS assay to identify small molecule that activate the aryl hydrocarbon receptor (AhR) signaling pathway - cell viability counter screen (AID 743086); conditions: HepG2-AhR-luc viability, CellTiter-Fluor, 24 h; series mostly up to 70.3 µM; further: nearly all actives have a fitted effect of over 45% in size; further: potency means the concentration at half of the fitted maximal effect
Summary of the method: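 HepG2-AhR-luc (HG2L7.5c1) cells, 4000/well, treated 24 h at 37 C with compound; viability measured as CellTiter-Fluor fluorescence after 30 min in the same wells as the luciferase read.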

[15] = molecular target: Peroxisome proliferator-activated receptor delta (Homo sapiens) (UniProt Q03181); assay: qHTS assay to identify small molecule antagonists of the peroxisome proliferator-activated receptor delta (PPARd) signaling pathway (AID 743215; active means well fitted inhibition curve with a large enough effect in the signal ratio in the repeat runs, not every such curve was filed as active; inconclusive means weak or mixed curves, or effect the other way; inactive means no such curve, though single readings can be large or run the other way; the % refers to the signal ratio;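 further: cells stimulated with agonist L165041 at 300 nM final during compound exposure; on the % scale 0 is the no-effect control and ±100 the full control effect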); conditions: HEK293H PPARd-UAS-bla, beta-lactamase FRET ratio, antagonist, 17 h; ratio activity, negative = inhibition: at 62 µM (top of the series) unless noted
Chain of UniProt Q03181 (Q03181 whole entry, looked up): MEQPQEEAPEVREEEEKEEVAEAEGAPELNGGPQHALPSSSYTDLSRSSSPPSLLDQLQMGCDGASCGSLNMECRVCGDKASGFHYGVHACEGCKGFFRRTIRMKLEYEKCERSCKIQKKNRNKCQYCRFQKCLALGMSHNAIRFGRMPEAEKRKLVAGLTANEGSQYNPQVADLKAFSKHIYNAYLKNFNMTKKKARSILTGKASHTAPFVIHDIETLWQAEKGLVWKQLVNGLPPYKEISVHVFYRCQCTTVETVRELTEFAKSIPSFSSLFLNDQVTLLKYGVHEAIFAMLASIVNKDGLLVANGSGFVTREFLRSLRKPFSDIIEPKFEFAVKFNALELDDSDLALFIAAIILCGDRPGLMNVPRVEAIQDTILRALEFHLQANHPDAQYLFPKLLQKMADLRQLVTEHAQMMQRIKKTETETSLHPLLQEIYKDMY
Summary of the method: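 Agonist L165041 (300 nM final) added with compound to PPARd-bla HEK293H UAS-bla reporter cells; 17 h incubation at 37 C. Read-out: LiveBLAzer FRET substrate, 2 h at room temperature, fluorescence intensity.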

[16] = qHTS RealTime-Glo MT Cell Viability Assay in HEK293 cells - 40 hour (AID 1224874); conditions: RealTime-Glo luminescence; max response: active compounds read low; further: nearly all actives have a fitted effect of over 50% in size; further: potency means the concentration at half of the fitted maximal effect
Summary of the method: as §2

[17] = Caspase-3/7 induction in HepG2 cells by small molecules, qHTS cell viability counter screen (AID 1346981); conditions: CellTiter-Fluor fluorescence, 17 h; series mostly up to 92.4 µM; further: nearly all actives have a fitted effect of over 30% in size; further: potency means the concentration at half of the fitted maximal effect
Summary of the method: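 CellTiter-Fluor fluorescence measured viability in the same wells used for Caspase-Glo 3/7. HepG2 (wild type) at 2,000 cells/well were pre-incubated 5 hr, dosed, and given reagent at 16 hr, with 1 hr further at 37C.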

[18] = qHTS assay to identify small molecule antagonists of the thyroid receptor (TR) signaling pathway (AID 743065); conditions: GH3.TRE-Luc, T3-stimulated luciferase inhibition, 23.5 h; series mostly up to 70.3 µM; further: nearly all actives have a fitted effect of over 55% in size; further: potency means the concentration at half of the fitted maximal effect
Summary of the method: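 GH3.TRE-Luc rat pituitary cells (two TREs driving luciferase) were dosed with compound, then stimulated with 1 nM T3 (final) for 23.5 h at 37 C. ONE-Glo luminescence was the read-out, with CellTiter-Fluor fluorescence as the cytotoxicity counter-screen.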

[19] = qHTS assay for small molecule activators of the heat shock response signaling pathway (AID 743210; active means well fitted activation curve with a large enough effect in the signal ratio in the repeat runs, with a control signal flat, not every such curve was filed as active; inconclusive means weak or mixed curves; the % refers to the signal ratio;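 further: HeLa cells with beta-lactamase reporter driven by heat shock elements; on the % scale 0 is the no-effect control and ±100 the full control effect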); conditions: HeLa HSE-bla reporter, beta-lactamase ratio, 5 h; activation: at 62.6 µM (top of the series) unless noted
Summary of the method: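 Beta-lactamase reporter read-out: FRET substrate fluorescence after 2.5 h at RT, following 5 h compound treatment at 37 C of HeLa cells carrying HSE-driven bla reporter; quantitative HTS format.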

[20] = qHTS assay to identify small molecule antagonists of the estrogen receptor alpha (ER-alpha) signaling pathway using the BG1 cell line - cell viability counter screen (AID 743081); conditions: BG1Luc4E2 viability, CellTiter-Fluor, 22 h; activity change, negative = cytotoxicity: at 70.3 µM (top of the series) unless noted; further: potency means the concentration at half of the fitted maximal effect
Tags describe the fitted curve by direction and shape or compound fluorescence and quenching.

O=C1c2ccccc2S(=O)(=O)N1CCCCN1CCN(c2ncccn2)CC1
Potency [1]: inactive
Potency [2]: inconclusive: 15.1 µM [inhibitor, partial curve, poor fit]
Potency [3]: inactive

N[C@@H](CSCCCO)C(=O)O
activity change, negative = cytotoxicity [4]: inactive: 2.46% [at 15.8 µM]

CC(=O)O[C@@H]1CC2C3CCc4cc(OC(=O)c5ccccc5)ccc4C3CCC2(C)[C@H]1OC(C)=O (stereo partly drawn)
Potency [5]: inactive
Potency [2]: inconclusive: 15.1 µM [inhibitor, partial curve]

Cc1ccc(S(=O)(=O)O)c(C)c1
Potency [6]: inactive
Potency [7]: inconclusive: 19.3 µM [rising, full curve]

CCC(C)(O)CCC=C(C)C (stereo not drawn)
Potency [8]: inactive
Potency [6]: inactive
Potency [9]: inactive

CCCc1ccc(O)cc1
Potency [10]: inactive
Potency [6]: inconclusive: 54.9 µM [activator, single point]
Potency [11]: inconclusive: 54.9 µM [activator, single point]
Potency [12]: inactive

Cc1cc(C)cc([N+](=O)[O-])c1
Potency [6]: active: 55.6 µM
Potency [11]: inconclusive: 55.6 µM [activator, single point]

COc1ccc(C(C)=O)cc1
Potency [1]: inactive
activation [13]: inconclusive: 1.22% [at 81.1 µM]

CC(=O)c1cc(C)oc1C
Potency [13]: inactive

CN(C)CCC[C@@]1(c2ccc(F)cc2)OCc2cc(C#N)ccc21
Potency [10]: inactive
Potency [12]: inactive

C=CC(=O)OCC1CCCO1 (stereo not drawn)
Potency [10]: inactive
Potency [14]: inconclusive: 48.6 µM [rising, partial curve, poor fit]

N[C@H]1C(O)O[C@H](CO)[C@H](O)[C@@H]1O (stereo partly drawn)
Potency [12]: inactive
Potency [2]: inconclusive: 21.9 µM [inhibitor, single point]

COc1cccc(OC)c1
Potency [15]: inactive
max response [16]: inactive: 0.816%
Potency [17]: inactive

Cc1ccccc1N1CCN(CCc2nnc3n2CCCC3)CC1
Potency [8]: inconclusive: 0.75 µM [rising, full curve]
Potency [13]: inactive
Potency [11]: inactive

C=CCCC(=O)O
Potency [18]: inactive
Potency [14]: inconclusive: 27.3 µM [rising, single point]
Potency [9]: inactive

CCCC(=O)C(CC)Sc1ccoc1C (stereo not drawn)
Potency [6]: inconclusive: 17.4 µM [activator, partial curve, poor fit]
Potency [11]: inconclusive: 17.4 µM [activator, partial curve, poor fit]
Potency [17]: inconclusive: 27.3 µM [rising, partial curve, poor fit]
Potency [3]: inconclusive: 35.6 µM [inhibitor, partial curve]

BrC/C=C/CBr
Potency [19]: inactive

CCCCCCCC[Si](OCC)(OCC)OCC
Potency [19]: inactive
Potency [13]: inactive
Potency [17]: inconclusive: 27.3 µM [cytotoxic, partial curve]
Potency [2]: inactive

CC(=O)Nc1ccc(S(N)(=O)=O)cc1
Potency [20]: inactive
ratio activity, negative = inhibition [15]: inconclusive: -17.4%
max response [16]: inactive: 14.7%
Potency [6]: inactive

CCc1ccccc1CC
Potency [19]: inactive

CCC1(C)CC(=O)NC1=O (stereo not drawn)
Potency [11]: inactive

C[C@@H](O)[C@H]1C(=O)N2C(C(=O)O)=C(S[C@@H]3CN[C@H](CNS(N)(=O)=O)C3)[C@H](C)[C@H]12
Potency [3]: active: 3.89 µM

N[C@H](C(=O)O)[C@@H](O)c1ccc(O)c(O)c1
Potency [18]: inconclusive: 29.8 µM [inhibitor, partial curve]
ratio activity, negative = inhibition [15]: inconclusive: 23.6%

Cc1c(N)cccc1Cl
Potency [13]: inconclusive: 49 µM [rising, partial curve, poor fit]

CC(CSC(=O)c1ccccc1)C(=O)N1C[C@@H](Sc2ccccc2)C[C@H]1C(=O)O (stereo partly drawn)
activity change, negative = inhibition [2]: inactive: 3.26% [at 15.8 µM]

CC(C)NCC(O)COc1ccc(CCOCC2CC2)cc1 (stereo not drawn)
Potency [18]: inconclusive: 29.8 µM [inhibitor, partial curve, poor fit]

CC(C)=CC(C)(C)C
Potency [14]: inactive
Potency [19]: inactive

CCOCC(C)O (stereo not drawn)
max response [16]: inactive: -1.56%

CS(=O)(=O)c1ccc([C@@H](CC2CCCC2)C(=O)Nc2cnccn2)cc1Cl
Potency [18]: inconclusive: 61.1 µM [inhibitor]
Potency [20]: inconclusive: 77 µM [cytotoxic, partial curve, poor fit]
Potency [14]: inconclusive: 68.6 µM [falling, single point]
Potency [16]: inconclusive: 61.6 µM [cytotoxic, partial curve]
Potency [4]: inconclusive: 54.9 µM [cytotoxic, partial curve]
Potency [12]: inconclusive: 54.9 µM [cytotoxic, single point]
Potency [9]: inconclusive: 68.6 µM [cytotoxic, single point]

Cc1ccccc1OCC(O)CO (stereo not drawn)
Potency [10]: inactive
Potency [13]: inconclusive: 0.0007 µM
